# Reference: PubChem BioAssay AID485294 (National Center for Advancing Translational Sciences (NCATS), 2010)
# Screen size: about 370,000 compounds; about 150 (0.041%) were called active. Inconclusive results, whose numbers are uncertain, are shown with a selection of clear calls. Calls come from the whole dose curve; as a rule, active = well fitted inhibition curve with a large enough effect; inconclusive = small, poorly fitted or top-dose-only effect; inactive = flat fitted curve, though single readings scatter. No potency is given beside an inconclusive call; the fits are too rough.
# Molecular target: Beta-lactamase (Escherichia coli (strain K12)) (UniProt P00811)
# Sequence of UniProt P00811 (P00811 whole entry, looked up): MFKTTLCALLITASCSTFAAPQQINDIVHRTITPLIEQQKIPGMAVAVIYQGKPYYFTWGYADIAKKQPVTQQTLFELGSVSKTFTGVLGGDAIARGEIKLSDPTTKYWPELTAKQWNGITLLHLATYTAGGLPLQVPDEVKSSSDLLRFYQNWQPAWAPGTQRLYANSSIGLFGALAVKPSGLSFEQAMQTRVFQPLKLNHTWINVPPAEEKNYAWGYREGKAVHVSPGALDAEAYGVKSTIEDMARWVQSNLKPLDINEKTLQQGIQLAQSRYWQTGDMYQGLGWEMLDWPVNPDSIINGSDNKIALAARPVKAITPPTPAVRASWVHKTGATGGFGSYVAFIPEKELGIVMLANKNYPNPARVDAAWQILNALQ
# Experiment: qHTS Inhibitors of AmpC Beta-Lactamase (assay with detergent); note: nearly all actives have a fitted effect of over 25% in size;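 for activity change, negative = inhibition: 0% = no-compound wells and -100% = no-enzyme wells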
# Settings: AmpC hydrolysis of nitrocefin, absorbance 480 nm, 0.01% Triton; activity change, negative = inhibition: at 114 µM (top of the series)
# In short: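 20 mM phosphate pH 7.0 + 0.01% (detergent screen) or 0.0001% Triton X-100; 5.3 nM AmpC reagent; cpd preinc 15 min RT; nitrocefin (800 uM stock) to start; A480 q20 s × 4 min; Activity was normalised to no-enzyme and no-compound control wells.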
# Potency is the fitted concentration of half-maximal effect; tags give direction and shape of the fitted curve.
SMILES,"activity change, negative = inhibition",Potency
CCn1c(SCC(=O)c2c[nH]c3ccccc23)nc2cc(S(=O)(=O)N3CCOCC3)ccc21,inactive: -8.33%,–
CCOC(=O)C1=C(C)N(C)C(=O)NC1c1ccc2c(c1)OCO2 (stereo unspecified),inactive: -12.8%,–
CCOC(=O)c1[nH]c(C)c(C(=O)NCc2ccc(OC)cc2)c1C,–,"inconclusive [inhibitor, full curve, poor fit]"
Cc1cccc(-c2noc(CCC(=O)NCc3ccco3)n2)c1,inactive: -2.99%,–
Cc1ccccc1NC(=O)Cn1c(=O)sc2ccccc21,inactive: 3.74%,–
COc1cc(OC)cc(C(=O)NCC(=O)Nc2ccc(C)c(Cl)c2)c1,inactive: -0.404%,–
CC1CN(S(=O)(=O)c2ccc(NC(=O)c3ccco3)cc2)CC(C)O1 (stereo unspecified),–,"inconclusive [inhibitor, full curve, poor fit]"
CC(Oc1ccc2c(c1)c1ccnc3c4ccccc4c(=O)n2c13)C(=O)NCCN1CCOCC1 (stereo unspecified),–,"inconclusive [inhibitor, full curve]"
Cc1cc(NC(C)c2ccccc2)n2ncc(-c3ccccc3)c2n1 (stereo unspecified),–,"inconclusive [inhibitor, single point]"
CN1CCN(C(=O)c2cc3c(s2)-c2ccccc2S(=O)(=O)C3)CC1,–,"inconclusive [inhibitor, full curve]"
COc1ccc(NC(=O)CCN2CCN(S(=O)(=O)c3ccc(Br)cc3)CC2)cc1,–,"inconclusive [inhibitor, single point]"
O=C(c1cccnc1)n1nc(-c2ccco2)nc1NCc1cccs1,–,"inconclusive [inhibitor, full curve]"
CC(NC(=O)CCl)c1ccccc1Br (stereo unspecified),inactive: 3.22%,–
CC(C)C(=O)NC(=S)Nc1ccccc1N1CCN(C(=O)c2ccc(Cl)cc2)CC1,inactive: 7.41%,–
CC(C)OCCCNC(=O)Cc1ccc(NC(=O)N2CCCCc3ccccc32)cc1,inactive: -0.847%,–
COc1cnc(-c2ccccn2)nc1Sc1ccccc1Cl,inactive: 1.81%,–
Cc1ccc(NC(=S)NCC2CCCO2)c(OC(F)F)c1 (stereo unspecified),–,"inconclusive [inhibitor, partial curve]"
Cc1ccccc1C(=O)Nc1cc2c(cc1N1CCCCC1)n(C)c(=O)n2C,inactive: 4.36%,–
CC(N=Cc1c(O)[nH]c(=O)[nH]c1=O)c1ccccc1 (stereo unspecified),inactive: -0.499%,–
O=C(O)CCC(=O)NNC(=O)COc1ccc(Cl)cc1Cl,inactive: -5.58%,–
COc1ccc(NC(=O)COc2cc(O)c3c(c2)OC(C)(C)CC3=O)cc1,–,"inconclusive [inhibitor, partial curve, poor fit]"
COc1ccc(C)cc1NC(=O)C(NCC(O)c1ccccc1)c1ccccc1 (stereo unspecified),inactive: -5.56%,–
O=C(NCc1ccc(Cl)cc1)C1CC(O)CN1S(=O)(=O)c1ccc(Cl)cc1 (stereo unspecified),–,"inconclusive [inhibitor, full curve, poor fit]"
O=C(NCC1CCCO1)C(c1cccs1)N(C(=O)Cn1nnc(-c2cccs2)n1)C1CCCC1 (stereo unspecified),–,"inconclusive [inhibitor, partial curve, poor fit]"

SMILES,"activity change, negative = inhibition",Potency
Cc1ccc2nc(N3CCN(C=O)CC3)nc(-c3ccccc3)c2c1,–,"inconclusive [inhibitor, partial curve]"
CCOc1ccccc1NC(=O)[C@@H](NC(=O)c1cccc(S(=O)(=O)N2CCOCC2)c1)C(C)C,inactive: -1.94%,–
COc1ccc(C(C)(C)C)cc1NC(=O)CCN1C(=O)C2CCCCC2C1=O (stereo unspecified),–,"inconclusive [inhibitor, full curve, poor fit]"
CCOC(=O)N1CCN(C(=O)Cc2cccc3ccccc23)CC1,–,"inconclusive [inhibitor, single point]"
C/C(=C\C(=O)c1cccnc1)Nc1ccc(C)c(C)c1,–,"inconclusive [inhibitor, full curve, poor fit]"
CN1C(=O)C(C)(C)c2cc(S(=O)(=O)NCC3CCC(C(=O)NCc4ccccc4)CC3)ccc21 (stereo unspecified),–,"inconclusive [inhibitor, partial curve, poor fit]"
Cc1ccc(C(=O)NNC(=O)c2cccnc2SCc2cccc([N+](=O)[O-])c2)cc1,–,"inconclusive [inhibitor, full curve, poor fit]"
COc1ccc(OCCOC(=O)c2ccc(F)c(S(=O)(=O)N3CCOCC3)c2)cc1,inactive: -6.68%,–
O=C(CN1CCN(c2ccccc2F)CC1)c1ccc2cc[nH]c2c1,–,"inconclusive [inhibitor, partial curve]"
N#Cc1c(-c2ccccc2)c(C#N)c2nc3ccccc3n2c1N,–,"inconclusive [inhibitor, full curve, poor fit]"
COc1cccc(Nc2cc(C)nc3ccccc23)c1,–,"inconclusive [inhibitor, partial curve]"
CCN1CCN(C(=S)Nc2ccc3nc(N4CCN(CC)CC4)cc(C)c3c2)CC1,inactive: -11.1%,–
O=C(CSc1ncnc2c1oc1ccccc12)NC1CCCC1,–,"inconclusive [inhibitor, partial curve, poor fit]"
COc1ccc(CCNC(=O)CSc2nnc3ccccn23)cc1,inactive: 4.64%,–
Cc1csc2nc(O)c(C(=O)NC3CCCCC3)c(=O)n12,–,"inconclusive [inhibitor, full curve, poor fit]"
O=C(C1=C[C@H](c2csc3ccccc23)C[C@H](OCCCCO)O1)N1CCN(Cc2ccc3c(c2)OCO3)CC1,inactive: 8.83%,–
Cc1ccc(C(=O)N2CCn3c(C)ccc3C2C)cc1 (stereo unspecified),inactive: 4.31%,–
Cc1ccnc(NS(=O)(=O)c2ccc(NC(=O)C3CCCCC3)cc2)n1,inactive: -16.9%,–
O=C(Nc1ccccc1)c1ccc(COc2ccccc2)cc1,inactive: -5.18%,–
CCN(CC)C(=O)CSc1nc(OC)cc(=O)[nH]1,–,"inconclusive [inhibitor, full curve, poor fit]"
O=C(O)COc1ccccc1/C=N/NC(=O)CSc1nc2ccccc2s1,inactive: 13.7%,–
CCS(=O)(=O)N1CCC(NC(=O)C2CCCCC2)CC1,–,"inconclusive [inhibitor, full curve, poor fit]"
Cc1c(C)c2cc3c(c(C)c2oc1=O)OCN(CCc1ccccc1)C3,inactive: 6.16%,–
Cc1ccc(Cl)cc1N1CCN(C(=O)Cn2ncn3cccc3c2=O)CC1,–,"inconclusive [inhibitor, full curve]"

SMILES,"activity change, negative = inhibition",Potency
COC(=O)c1c(C)[nH]c(C(=O)OC(C)C(=O)N2CCOCC2)c1C (stereo unspecified),–,"inconclusive [inhibitor, single point]"
O=C(Nc1ccc2nc(-c3ccco3)[nH]c2c1)c1ccco1,inactive: -8%,–
CCOc1ccc(C(=S)NC2CCCCC2)cc1,inactive: 6.26%,–
CCc1cccc(NC(=O)CCc2c(C)nc3c(-c4ccccc4)c(C)nn3c2C)c1,–,"inconclusive [inhibitor, single point]"
CCN(C(=O)Cn1c(=O)oc2cc(S(=O)(=O)N3CCCCC3)ccc21)c1ccccc1,inactive: -0.28%,–
COc1cccc(/C=N/NC(=O)C(=O)NCc2ccco2)c1OC,–,"inconclusive [inhibitor, partial curve, poor fit]"
O=C(CN1CCSC1=O)N1CCN(S(=O)(=O)c2ccc(Cl)cc2)CC1,–,"inconclusive [inhibitor, partial curve, poor fit]"
CCOC(=O)N1CCC(NC(=O)C(Cc2ccccc2)NC(=O)c2ccco2)CC1 (stereo unspecified),–,"inconclusive [inhibitor, full curve]"
CCCN1CCC(=O)N(CCN=[N+]=[N-])CC1,–,"inconclusive [inhibitor, full curve, poor fit]"
O=C(NCc1ccc(F)cc1)c1cc(-c2ccncc2)nc2ccccc12,–,"inconclusive [inhibitor, partial curve, poor fit]"
O=C(O)CCCCCNC(=O)c1ccccc1,–,"inconclusive [inhibitor, full curve, poor fit]"
Cc1ncn(-c2ccc(C(=O)Oc3ccccc3)cn2)n1,–,"inconclusive [inhibitor, full curve, poor fit]"
COc1ccc(Nc2nc(C)cc(C)c2C#N)cc1OC,–,"inconclusive [inhibitor, full curve, poor fit]"
CCN1CCN(c2ccc(NC(=O)CCc3c(C)nc4c(-c5ccc(F)cc5)c(C)nn4c3C)cc2)CC1,inactive: -0.776%,–
Cc1ccc(C(=O)N/N=C\c2cc3c(cc2Br)OCO3)s1,–,"inconclusive [inhibitor, partial curve, poor fit]"
C/C(CC(=O)Nc1ccc(F)cc1F)=N\NC(=O)C(=O)N1CCCCC1,–,"inconclusive [inhibitor, full curve, poor fit]"
O=[N+]([O-])c1ccc(OCC(O)CN(C2CCCCC2)C2CCCCC2)cc1 (stereo unspecified),–,"inconclusive [inhibitor, full curve, poor fit]"
CN(CCc1ccccc1)c1ccc([N+](=O)[O-])cn1,–,"inconclusive [inhibitor, partial curve, poor fit]"
CCC1CCC2(CC1)NC(=O)N(CC(=O)Nc1ccc(OC)cc1)C2=O (stereo unspecified),–,"inconclusive [inhibitor, single point]"
COc1cc(/C=N/NC(=O)CN2CCOCC2)ccc1OCc1ccccc1,–,"inconclusive [inhibitor, full curve, poor fit]"
Clc1ccc(OCc2cn3cccnc3n2)c2ncccc12,inactive: 2.05%,–
O=C(NCCc1c[nH]c2ccccc12)c1cnc2n(c1=O)CCS2,–,"inconclusive [inhibitor, full curve, poor fit]"
CC/C(Cc1ccccc1)=N/NC(=O)c1cccc(Br)c1,–,"inconclusive [inhibitor, full curve, poor fit]"
